From PMC5243199 (Cancer research, 2016)

Target: T1, His-menin (UniProt O00255-2 1-610)
T1 sequence (looked up): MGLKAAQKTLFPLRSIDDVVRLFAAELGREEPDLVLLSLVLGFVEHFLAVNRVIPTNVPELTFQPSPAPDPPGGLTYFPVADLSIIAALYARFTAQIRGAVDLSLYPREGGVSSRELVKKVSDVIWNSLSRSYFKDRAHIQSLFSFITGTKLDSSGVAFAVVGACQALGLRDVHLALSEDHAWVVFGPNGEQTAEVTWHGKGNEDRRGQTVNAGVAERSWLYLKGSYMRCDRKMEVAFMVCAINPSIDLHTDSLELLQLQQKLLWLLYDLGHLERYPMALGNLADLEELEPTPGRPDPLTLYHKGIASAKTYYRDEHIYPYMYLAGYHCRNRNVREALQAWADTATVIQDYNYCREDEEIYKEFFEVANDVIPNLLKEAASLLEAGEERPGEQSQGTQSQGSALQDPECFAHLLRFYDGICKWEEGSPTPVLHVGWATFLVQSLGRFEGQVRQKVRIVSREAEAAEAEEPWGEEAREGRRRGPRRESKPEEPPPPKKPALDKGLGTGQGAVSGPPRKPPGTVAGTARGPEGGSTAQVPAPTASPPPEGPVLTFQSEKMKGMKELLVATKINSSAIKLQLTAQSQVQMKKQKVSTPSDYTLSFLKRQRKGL
Experiment: co-IP

binding result: binds
B1: His-Daxx ([…]) (domain or fragment)
chain: not shown
